Where “and” joins values, the source holds several entries; their conditions need not be identical. Equal values may be shown once. Among all 410,000 compounds or so, about 6,400 (1.6%) were called active. Inconclusive results, whose numbers are uncertain, are shown with a selection of clear calls. Calls follow the shape of the dose curve; as a rule, active = well fitted inhibition curve with a large enough effect; inconclusive = small, poorly fitted or top-dose-only effect; inactive = no such curve, though single readings can be large or run the other way. A potency beside an inconclusive call is a rough fit, not a confirmed value.
Molecular target: Glucagon-like peptide 1 receptor (Homo sapiens) (UniProt P43220)
Chain of UniProt P43220 (P43220 whole entry, looked up): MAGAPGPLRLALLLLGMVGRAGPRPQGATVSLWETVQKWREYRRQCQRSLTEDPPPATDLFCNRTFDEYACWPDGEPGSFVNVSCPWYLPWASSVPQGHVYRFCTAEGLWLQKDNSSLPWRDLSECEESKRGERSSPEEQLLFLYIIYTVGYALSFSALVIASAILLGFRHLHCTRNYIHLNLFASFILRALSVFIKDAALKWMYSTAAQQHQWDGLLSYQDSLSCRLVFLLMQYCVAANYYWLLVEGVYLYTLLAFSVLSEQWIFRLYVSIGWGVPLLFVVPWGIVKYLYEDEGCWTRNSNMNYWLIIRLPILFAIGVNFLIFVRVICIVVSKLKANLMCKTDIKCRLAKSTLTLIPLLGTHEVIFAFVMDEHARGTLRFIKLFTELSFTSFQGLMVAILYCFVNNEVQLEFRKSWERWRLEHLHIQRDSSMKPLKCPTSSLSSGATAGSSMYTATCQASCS
Assay: qHTS of GLP-1 Receptor Inverse Agonists (Inhibition Mode); also: nearly all actives have a fitted effect of over 55% in size
Conditions: HEK293 GLP-1R CRE-luciferase, luminescence, 24 h, GLP-1R form is constitutively active; activity change, negative = inhibition: at 38.3 µM (top of the series) unless noted
In short: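 Luminescence readout: a drop in cAMP-driven luciferase signal flags inverse agonism at a constitutively active GLP-1R stably expressed in HEK293. Compound exposure lasted 24 hr at 37 deg C, 5% CO2.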
% is scaled to controls: 0 for no effect and ±100 for the full control effect; potency is read from the fitted curve at half-maximal effect; tags tell the direction and shape of the fitted curve.

Potency, inconclusive:
Nc1nc(SCc2ccccc2)cc(SCc2ccccc2)n1 10 µM [inhibitor, partial curve, poor fit]
COc1ccc(S(=O)(=O)c2cc(NS(=O)(=O)c3ccc(Cl)cc3)c(C)c(C)c2O)cc1 11.2 µM [inhibitor, partial curve, poor fit]
Cc1nc2ccccc2c(=O)n1Nc1cccc(Cl)c1 12.6 µM [inhibitor, partial curve, poor fit]
COc1ccc(/C=N/n2c(-c3ccccc3)n[nH]c2=S)cc1 10 µM [inhibitor, partial curve, poor fit]
O=C(OCn1ncc(Br)c(Br)c1=O)c1ccccc1Cl 7.08 µM [inhibitor, partial curve, poor fit]
COCCNc1nc(-c2cc3ccccc3o2)cs1 12.6 µM [inhibitor, single point]
CCCN1C(=O)c2ccccc2NC1c1ccc(C)cc1 (configuration not stated) 17.8 µM [inhibitor, partial curve, poor fit]
Cc1nc(-c2ccc(S(=O)(=O)Nc3ccc(C)c(N(C)C)c3)cc2)co1 14.1 µM [inhibitor, single point]
COc1ccc(CCNC(=O)c2ccc3c(c2)N(Cc2ccc(F)cc2)CCS3)cc1OC 7.94 µM [inhibitor, partial curve, poor fit] and 22.4 µM [inhibitor, single point]
Nc1nc(-c2ccccc2)nc2sc3c(c12)CCCC3 28.2 µM [inhibitor, single point]
Cc1ccc(NC(=O)C2CCN(S(=O)(=O)c3ccc4c(c3)NC(=O)CO4)CC2)cc1C 28.2 µM [inhibitor, single point]
COc1ccc(Cn2c(=O)n(Cc3ccco3)c(=N)c3c4c(sc32)COC(C)(C)C4)cc1 28.2 µM [inhibitor, single point]
Cc1cccc(OCC(=O)Nc2ccc3c(c2)nc(CCN2CCN(c4ccccn4)CC2)n3C)c1 11.2 µM [inhibitor, single point]
COc1ccc(Cl)cc1NC(=O)CNCC(c1ccccc1)N(C)C (configuration not stated) 28.2 µM [inhibitor, single point]
Cc1ccnc(NC(=O)C23CC4CC(CC(C4)C2)C3)c1 28.2 µM [inhibitor, single point]
CCN1C(=O)C(c2ccc(O)cc2)(c2ccc(O)cc2)c2ccccc21 31.6 µM [inhibitor, single point]
Cc1ccc(NC(=O)CN(CCc2ccccc2)S(C)(=O)=O)cc1 1.58 µM [inhibitor, partial curve, poor fit]
C=CCc1ccc(OCCCCNC2CCCC2)c(OC)c1 25.1 µM [inhibitor, partial curve, poor fit]
O=C(CC1C(=O)NCCN1CC1CCCCC1)NCc1cc(F)ccc1F (configuration not stated) 3.98 µM [inhibitor, partial curve, poor fit]
CCOc1ccccc1CNC(=O)c1cccn1-c1nnc(N2CCCCC2)s1 10 µM [inhibitor, partial curve, poor fit]
Cc1ccccc1CN(C)C(=O)[C@H](Cc1ccccc1)NC(=O)c1ccco1 28.2 µM [inhibitor, single point]
O=C(Nc1cccc(OC(F)(F)F)c1)C1Cc2c(-c3ccc(Cl)cc3)ccnc2O1 (configuration not stated) 28.2 µM [inhibitor, partial curve, poor fit]
CCOc1ccc(N(C)C(CNS(=O)(=O)c2ccccc2)c2ccccc2)cc1 (configuration not stated) 10 µM [inhibitor, partial curve, poor fit]
CC(C)c1ccc(Nc2nnc(SCC(=O)NCC3CCCO3)s2)cc1 (configuration not stated) 22.4 µM [inhibitor, single point]
Cc1ccc(-n2c(CNc3cccc(Cl)c3)n[nH]c2=S)cc1 28.2 µM [inhibitor, single point]
Cc1ncc([N+](=O)[O-])n1CC(=O)Nc1ccc(OC(F)(F)Cl)cc1 8.91 µM [inhibitor, single point]
CCOc1cc(S(=O)(=O)n2c(C)nc3ccccc32)ccc1F 28.2 µM [inhibitor, single point]
CCc1ccccc1NC(=O)c1cc(S(=O)(=O)N2CCCc3ccccc32)ccc1F 11.2 µM [inhibitor, single point]
Cc1ccc(C(NC(=O)C2CCN(CCOc3ccc(Cl)cc3Cl)CC2)c2ccccn2)cc1 (configuration not stated) 28.2 µM [inhibitor, single point]
CCCCn1c(=O)c2ccccc2c2ccccc2c1=O 11.2 µM [inhibitor, partial curve, poor fit]
CCN(CC(=O)Nc1ccc2c(c1)OCCO2)C(=O)/C=C/c1cccc(Br)c1 10 µM [inhibitor, single point]
CC1CCC2(CC1)SCC(=O)N2c1ccccc1 (configuration not stated) 11.2 µM [inhibitor, partial curve, poor fit]
CC1(C)Cc2ccccc2C(NNC(=O)c2ccccn2)=N1 7.94 µM [inhibitor, partial curve, poor fit]
COC(=O)[C@H](C(C)C)N(Cc1ccccc1)S(=O)(=O)CCN1CCN(c2ccccc2)CC1 10 µM [inhibitor, partial curve]
O=c1oc(-c2ccccc2)c(-c2ccccc2)c2ccccc12 3.98 µM [inhibitor, partial curve, poor fit]
CCOC(=O)c1[nH]c2c(c1-c1ccccc1)C(=O)CC(c1ccc(OC)c(OC)c1)C2 (configuration not stated) 31.6 µM [inhibitor, single point]
Nc1ccc2c(c1)C(=O)c1cc(Cl)c(Cl)cc1-2 2.24 µM [inhibitor, full curve]
Cc1cccc(-c2noc(CN(C)C(=O)c3ccoc3C)n2)c1 5.01 µM [inhibitor, full curve, poor fit]
COc1ccccc1-c1cc2nc(C)c(CCC(=O)NCc3cccc(Cl)c3)c(C)n2n1 12.6 µM [inhibitor, single point]
Cc1nc(Nc2cccc(C(C)O)c2)c2nnn(Cc3ccc(F)cc3)c2n1 (configuration not stated) 12.6 µM [inhibitor, partial curve, poor fit]
O=C(N/C(=C/c1ccccc1)C(=O)N1CCCCC1)c1ccccc1 11.2 µM [inhibitor, partial curve, poor fit]
O=C1C(=O)N(c2ccccc2)C(c2ccccc2)C1c1ccccc1 (configuration not stated) 6.31 µM [inhibitor, partial curve, poor fit]
CCCCn1c(C(C)NC(=O)c2ccccc2)nc2ccccc21 (configuration not stated) 10 µM [inhibitor, single point]
Cc1ccc(SC(C)C(=O)O/N=C(\N)c2ccncc2)cc1 (configuration not stated) 8.91 µM [inhibitor, single point]
COc1ccc(C(=O)NCc2cc(C)nc3ccccc23)cc1 3.16 µM [inhibitor, partial curve, poor fit]
CCN(CC)c1ccc2cc(C(=O)c3cccs3)c(=O)oc2c1 3.55 µM [inhibitor, partial curve]
CC(C)C[C@@H]1COc2cccc(N3CCN(Cc4ccccc4F)CC3)c2S(=O)(=O)N1 20 µM [inhibitor, single point]
COc1ccc(S(=O)(=O)Nc2c(NC3CCCCC3)c3ccccc3oc2=O)cc1 28.2 µM [inhibitor, single point]
C/C(=N\NC(=O)c1cc(-c2ccncc2)nc2ccccc12)c1ccc(N2CCOCC2)cc1 6.31 µM [inhibitor, partial curve, poor fit]
O=C(Nc1nnc(S(=O)(=O)N2CCCc3ccccc32)s1)c1ccccc1 12.6 µM [inhibitor, single point]
O=C(NCCC(c1ccccc1)c1ccco1)c1cccs1 (configuration not stated) 11.2 µM [inhibitor, single point]
CCC1CN(C(=O)Nc2cccc3c2CCCC3)c2ccccc2O1 (configuration not stated) 28.2 µM [inhibitor, single point]
COc1cc(CN2CCCC(N3CCN(c4ccccc4C)CC3)C2)ccc1O (configuration not stated) 31.6 µM [inhibitor, partial curve, poor fit]

Activity change, negative = inhibition, inactive:
CCNC(=S)NNC(=O)c1cc(C)nc2ccccc12 -7.78%
N/C(=N\OC(=O)/C=C/c1ccccc1)c1cccnc1 6.12%
N#Cc1cccc(NC(=O)c2cc3c(s2)-c2ccc(Cl)cc2SC3)c1 -33.4%
COc1ccc(C2=C(Nc3ccc(C)c(C)c3)c3ccccc3C2=O)cc1 -13.3%
CCOC(=O)C1=C(N)N(c2ccccc2)C(=O)C1 15.8%
CC(C)CCn1c(=O)c2sccc2n2c(CCCC(=O)NCc3ccc(F)cc3)nnc12 -5.78%
CCN(C(=O)CSc1nc2n[nH]c(C)c2c(=N)n1-c1ccc(Cl)c(C)c1)c1cccc(C)c1 13.3%
CCN(CC)Cc1c(C(=O)N/N=C/c2ccncc2)nnn1-c1nonc1N -49.9%
COC(=O)CN1CCN(C(=O)c2ccc(F)cc2)c2ccccc2C1 11.6%

— PubChem BioAssay AID624417 (National Center for Advancing Translational Sciences (NCATS), 2012)
